# Reference: the supplement of paper PMC4604168 (melanoma cell lines)
# This is one part of the list. Many values rest on one well or one pass, so single values are uncertain.
# Test system: IPC-298
# Assay: cell count relative to DMSO control; melanoma cells; higher = more viable cells
# Details: library dose: low library concentration; 72 h
# 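Note: cell number obtained by counting DAPI-stained nuclei in high-throughput microscope images with image analysis software, screen run in 1,536-well plates.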
row,Compound,cell count [%]
1,"C[C@@H](Oc1cc(-c2cnn(C3CCNCC3)c2)cnc1N)c1c(Cl)ccc(F)c1Cl [Crizotinib] + CCCCCCCCCCCC1=C(O)C(=O)C=C(O)C1=O [Embelin] (first compound 0.2 µM, partner dose 1.2 µM)",102
2,"CN1CCN(c2ccc3nc(-c4c(N)c5c(F)cccc5[nH]c4=O)[nH]c3c2)CC1 [Dovitinib] + CCCCCCCCCCCC1=C(O)C(=O)C=C(O)C1=O [Embelin] (first compound 0.1 µM, partner dose 1.2 µM)",92.6
3,"CN1CCN(c2ccc3nc(-c4c(N)c5c(F)cccc5[nH]c4=O)[nH]c3c2)CC1 [Dovitinib] + CCN(CC)CCCCNc1ncc2cc(-c3cc(OC)cc(OC)c3)c(NC(=O)NC(C)(C)C)nc2n1 [PD173074] (first compound 0.1 µM, partner dose 0.1 µM)",94.8
4,"CS(=O)(=O)CCNCc1ccc(-c2ccc3ncnc(Nc4ccc(OCc5cccc(F)c5)c(Cl)c4)c3c2)o1 [lapatinib] + COC(=O)c1sccc1S(=O)(=O)Nc1ccc(Nc2ccccc2)cc1OC [GSK0660] (first compound 0.8 µM, partner dose 1 µM)",100
5,"C=CCNC1=C2C[C@@H](C)C[C@H](OC)[C@H](O)[C@@H](C)/C=C(\C)[C@H](OC(N)=O)[C@@H](OC)/C=C\C=C(/C)C(=O)NC(=CC1=O)C2=O [Tanespimycin] + COC(=O)c1sccc1S(=O)(=O)Nc1ccc(Nc2ccccc2)cc1OC [GSK0660] (first compound 0.002 µM, partner dose 1 µM)",99.3
6,"C[C@@H](Oc1cc(-c2cnn(C3CCNCC3)c2)cnc1N)c1c(Cl)ccc(F)c1Cl [Crizotinib] + O=S(=O)(c1ccccc1)N(CC(F)(F)F)c1ccc(C(O)(C(F)(F)F)C(F)(F)F)cc1 [T0901317] (first compound 0.2 µM, partner dose 1.4 µM)",91.1
7,"C=CCNC1=C2C[C@@H](C)C[C@H](OC)[C@H](O)[C@@H](C)/C=C(\C)[C@H](OC(N)=O)[C@@H](OC)/C=C\C=C(/C)C(=O)NC(=CC1=O)C2=O [Tanespimycin] + CCCCCCCCCCCC1=C(O)C(=O)C=C(O)C1=O [Embelin] (first compound 0.002 µM, partner dose 1.2 µM)",94.8
8,"CNC(=O)c1cc(Oc2ccc(NC(=O)Nc3ccc(Cl)c(C(F)(F)F)c3)cc2)ccn1 [sorafenib] + COC(=O)c1sccc1S(=O)(=O)Nc1ccc(Nc2ccccc2)cc1OC [GSK0660] (first compound 0.4 µM, partner dose 1 µM)",95
9,"CNC(=O)c1cc(Oc2ccc(NC(=O)Nc3ccc(Cl)c(C(F)(F)F)c3)cc2)ccn1 [sorafenib] + CCN(CC)CCCCNc1ncc2cc(-c3cc(OC)cc(OC)c3)c(NC(=O)NC(C)(C)C)nc2n1 [PD173074] (first compound 0.4 µM, partner dose 0.1 µM)",98.7
10,"CN1CCN(c2ccc3nc(-c4c(N)c5c(F)cccc5[nH]c4=O)[nH]c3c2)CC1 [Dovitinib] + O=c1cc(-c2cccc3c2Sc2ccccc2S3)oc(N2CCOCC2)c1 [KU55933] (first compound 0.1 µM, partner dose 1 µM)",100
11,"C=CCNC1=C2C[C@@H](C)C[C@H](OC)[C@H](O)[C@@H](C)/C=C(\C)[C@H](OC(N)=O)[C@@H](OC)/C=C\C=C(/C)C(=O)NC(=CC1=O)C2=O [Tanespimycin] + O=C1NC(=O)/C(=C/c2ccc(-c3ccc(F)cc3O)o2)S1 [AS252424] (first compound 0.002 µM, partner dose 1 µM)",101
12,"C=CCNC1=C2C[C@@H](C)C[C@H](OC)[C@H](O)[C@@H](C)/C=C(\C)[C@H](OC(N)=O)[C@@H](OC)/C=C\C=C(/C)C(=O)NC(=CC1=O)C2=O [Tanespimycin] + O=C(O)C(=O)Nc1sc2c(c1C(=O)O)CCNC2 [TCS401] (first compound 0.002 µM, partner dose 1.66667 µM)",101
13,"C=CCNC1=C2C[C@@H](C)C[C@H](OC)[C@H](O)[C@@H](C)/C=C(\C)[C@H](OC(N)=O)[C@@H](OC)/C=C\C=C(/C)C(=O)NC(=CC1=O)C2=O [Tanespimycin] + COc1ccc2c(c1)CCC1C2CCC2(C)C(NCCCCCCN3C(=O)C=CC3=O)CCC12 [U73122] (first compound 0.002 µM, partner dose 0.4 µM)",104
14,"CNC(=O)c1cc(Oc2ccc(NC(=O)Nc3ccc(Cl)c(C(F)(F)F)c3)cc2)ccn1 [sorafenib] + N#Cc1c(O)c2c(-c3ccc(-c4ccccc4O)cc3)csc2[nH]c1=O [A769662] (first compound 0.4 µM, partner dose 2 µM)",93.8
15,"CS(=O)(=O)CCNCc1ccc(-c2ccc3ncnc(Nc4ccc(OCc5cccc(F)c5)c(Cl)c4)c3c2)o1 [lapatinib] + Oc1cc(-c2nc(-c3ccccc3)[nH]c2-c2ccncc2)ccc1Cl [L779450] (first compound 0.8 µM, partner dose 0.2 µM)",72.9
16,"CN1CCN(c2ccc3nc(-c4c(N)c5c(F)cccc5[nH]c4=O)[nH]c3c2)CC1 [Dovitinib] + O=C(O)C(=O)Nc1sc2c(c1C(=O)O)CCNC2 [TCS401] (first compound 0.1 µM, partner dose 1.66667 µM)",93.1
17,"C=CCNC1=C2C[C@@H](C)C[C@H](OC)[C@H](O)[C@@H](C)/C=C(\C)[C@H](OC(N)=O)[C@@H](OC)/C=C\C=C(/C)C(=O)NC(=CC1=O)C2=O [Tanespimycin] + COc1ccc(COc2ccc(Cc3cnc(N)nc3N)cc2OC)cc1 [GW2580] (first compound 0.002 µM, partner dose 1 µM)",91.4
18,"CNC(=O)c1cc(Oc2ccc(NC(=O)Nc3ccc(Cl)c(C(F)(F)F)c3)cc2)ccn1 [sorafenib] + COc1ccc(-c2ccc3c(N4CCOCC4)nc(N4C[C@@H](C)O[C@@H](C)C4)nc3n2)cc1CO [KU0063794] (first compound 0.4 µM, partner dose 0.02 µM)",89.6
19,"CNC(=O)c1cc(Oc2ccc(NC(=O)Nc3ccc(Cl)c(C(F)(F)F)c3)cc2)ccn1 [sorafenib] + COc1ccc2c(c1)CCC1C2CCC2(C)C(NCCCCCCN3C(=O)C=CC3=O)CCC12 [U73122] (first compound 0.4 µM, partner dose 0.4 µM)",97.7
20,"C[C@@H](Oc1cc(-c2cnn(C3CCNCC3)c2)cnc1N)c1c(Cl)ccc(F)c1Cl [Crizotinib] + O=c1cc(-c2cccc3c2Sc2ccccc2S3)oc(N2CCOCC2)c1 [KU55933] (first compound 0.2 µM, partner dose 1 µM)",101
21,"C[C@@H](Oc1cc(-c2cnn(C3CCNCC3)c2)cnc1N)c1c(Cl)ccc(F)c1Cl [Crizotinib] + COC(=O)c1sccc1S(=O)(=O)Nc1ccc(Nc2ccccc2)cc1OC [GSK0660] (first compound 0.2 µM, partner dose 1 µM)",100
22,"CS(=O)(=O)CCNCc1ccc(-c2ccc3ncnc(Nc4ccc(OCc5cccc(F)c5)c(Cl)c4)c3c2)o1 [lapatinib] + O=C(O)C(=O)Nc1sc2c(c1C(=O)O)CCNC2 [TCS401] (first compound 0.8 µM, partner dose 1.66667 µM)",88.3
